Some of the results follow. For part of these data: At the low end of the ranking the order means little. For part of these data: The protein was read in a cell extract, so binding may be indirect.

In PMC6451091 one finds binding signal data, which are given here for 60 sequences.

Common to all, as to conditions: 20 mM HEPES pH 7.9, 100 mM NaCl, 1 mM DTT, 0.2 mg/mL BSA, 0.02% Triton X-100, 2% milk, 0.4 mg/mL salmon testes DNA; 1 h; temperature not stated; high values mean tight binding; double strand, one strand shown; sequences stand for … in GCCTAGCAC…GTGCTAGGTCTTGATTCGCTTGACGCTGCTG
The target in one assay is PU.1 (IVT) (UniProt P17947). The assay can be described thus: protein-binding microarray (PBM).
The target in assay [1] is PU.1 (endogenous, THP-1 nuclear extract) (UniProt P17947). The assay can be described thus: nuclear extract protein-binding microarray (nextPBM).
The target of assay [2] is T1, FLI1 (endogenous, THP-1 nuclear extract) (UniProt Q01543).
T1 sequence: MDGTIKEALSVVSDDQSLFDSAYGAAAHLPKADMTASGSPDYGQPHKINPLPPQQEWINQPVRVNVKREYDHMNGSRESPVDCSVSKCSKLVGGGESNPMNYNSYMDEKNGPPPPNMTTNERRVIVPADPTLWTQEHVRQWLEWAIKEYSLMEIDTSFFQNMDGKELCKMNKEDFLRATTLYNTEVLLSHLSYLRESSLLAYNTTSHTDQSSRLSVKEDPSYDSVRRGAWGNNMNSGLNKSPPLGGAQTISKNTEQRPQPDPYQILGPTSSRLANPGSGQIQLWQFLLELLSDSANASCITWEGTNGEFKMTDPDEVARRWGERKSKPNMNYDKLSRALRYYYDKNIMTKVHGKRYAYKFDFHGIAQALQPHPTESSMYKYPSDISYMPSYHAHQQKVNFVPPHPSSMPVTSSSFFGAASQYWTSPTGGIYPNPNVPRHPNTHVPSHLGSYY
Described as above.

Turning to GATAAGAAGAAGTCCTCTGT, the binding signal with PU.1 (IVT) was 1.12 z-score; in assay [1], 1.17 z-score; in assay [2], -0.095 z-score.
For GGAATAAGGAAGTGGCCAGT, in that order: 5.59 z-score, 6.35 z-score and 2.54 z-score.
For AAATAGAGGAAGTGCTCAAT, in that order: 7.44 z-score, 7.12 z-score and 3.95 z-score.
For GAAAACAGGAAGTGATTAGA, the binding signal turned out to be 7.95 z-score in the assay with PU.1 (IVT), 7.19 z-score in assay [1] and 5.42 z-score in assay [2].
The corresponding values for CAAATGAGAAACTGATGCGG are 0.374 z-score, 0.135 z-score and -0.412 z-score.
For TCCAAGAGGAAGTGGGAGTC, in that order: 4.14 z-score, 5.14 z-score and 2.81 z-score.
Consider ACAAAGGGGAAGTAGCAGGT, for which the binding signal in the assay with PU.1 (IVT) worked out at 7 z-score; in assay [1], 6.79 z-score; in assay [2], 3.52 z-score.
The corresponding values for CAATTGAGGAACTGAATTTT are 5.21 z-score, 5.65 z-score and 1.36 z-score.
For TAAAAGAGGAAGTCAGTGGG, in that order: 7.67 z-score, 7.06 z-score and 3.61 z-score.
As for GAAAACAGGAATTCCCATAG, the binding signal with PU.1 (IVT) came out at 2.2 z-score; in assay [1] it was 1.69 z-score; in assay [2], 1.26 z-score.
On to GAAAAGAGGAAGTTGGACAT, for which the binding signal with PU.1 (IVT) is 8.75 z-score; in assay [1], 7.27 z-score; in assay [2], 4.59 z-score.
For GGAAAGAGGAAGTCTGCAGA, in that order: 7.29 z-score, 6.97 z-score and 3.1 z-score.
For CAAATGAGGTACTGATGCGG, in that order: 0.387 z-score, 0.796 z-score and 0.0801 z-score.
Consider AAAAAAGGGAAGTGATTTAA, for which the binding signal is 8.59 z-score in the assay with PU.1 (IVT), 7.46 z-score in assay [1] and 3.95 z-score in assay [2].
For TAAATGAGGAAGTGCTGCAT, in that order: 8.18 z-score, 7.55 z-score and 4 z-score.
The corresponding values for GGAAAGGGGAAGTGACTGCT are 7.55 z-score, 7.19 z-score and 3.45 z-score.
The corresponding values for CGAAAGGGGAAGTGCCAAAC are 6.72 z-score, 7.08 z-score and 3.34 z-score.
For TAAAAAGGGAAGTGGATGCT, the figures for the binding signal (in the assay with PU.1 (IVT); in assay [1]; in assay [2]) were 6.6 z-score, 6.85 z-score and 3.35 z-score, respectively.
The corresponding values for ATAAACGGGAAGTGAGCAAT are 5.51 z-score, 6.39 z-score and 3.06 z-score.
The corresponding values for GATAAGAGGGAGTCCTCTGT are -0.726 z-score, -0.196 z-score and -0.395 z-score.
The corresponding values for ATGATAAGGAAGTGAAACAG are 3.54 z-score, 4.03 z-score and 2.31 z-score.
On to AGGAAGAGGAAGTGAAGAGC, for which the binding signal came out at 6.37 z-score with PU.1 (IVT), 6.75 z-score in assay [1] and 3.45 z-score in assay [2].
The corresponding values for CAAAAAGGGAAGTGTCTGCA are 6.22 z-score, 6.6 z-score and 2.55 z-score.
The corresponding values for GATAAGAGGAAGTCCCCTGT are 5.69 z-score, 6.43 z-score and 2.98 z-score.
For TGATAGGGGAAGTGGGAGTT, in that order: 4.95 z-score, 5.02 z-score and 2.05 z-score.
For the sequence GCTAAGGGGAAGTGGGGCGG, the binding signal worked out at 4.11 z-score with PU.1 (IVT), 4.72 z-score in assay [1] and 2.21 z-score in assay [2].
Consider CAGTGAGGGAAGTGGCTGAA, for which the values for the binding signal (with PU.1 (IVT); in assay [1]; in assay [2]) were 2.16 z-score, 2.28 z-score and 1.04 z-score, respectively.
The corresponding values for AAGAAGAGGAAGTGTTTACA are 6.43 z-score, 6.68 z-score and 3.52 z-score.
For AAAAGAGGGAAGTGCCGCAC, in that order: 4.97 z-score, 5.82 z-score and 1.8 z-score.
The corresponding values for TAAATGGGGAAGTGGGGCGG are 6.03 z-score, 6.71 z-score and 3.11 z-score.
In the case of ATGAAGAGGAAGTCAAGAGG, the binding signal was determined as 4.4 z-score with PU.1 (IVT), 4.94 z-score in assay [1] and 2.56 z-score in assay [2].
The corresponding values for AGAAAGAGGAAGTGTAAAAA are 8.57 z-score, 7.48 z-score and 4.43 z-score.
With TGGGAAAGGAAGTGGGTGTG, the binding signal with PU.1 (IVT) worked out at 1.92 z-score; in assay [1] it was 1.9 z-score; in assay [2], 2.66 z-score.
For AGGAGAAGGAAGTGGGAAGA, in that order: 3.01 z-score, 2.88 z-score and 1.91 z-score.
For ATTTTGAAGAACTACTGTGG, in that order: 1.17 z-score, 1.2 z-score and -0.409 z-score.
The corresponding values for AAGAAGAGGAACTGGAGTAA are 4.07 z-score, 4.4 z-score and 1.5 z-score.
Take CCAATGAGGAACTGATGCGG: the results for the binding signal (in the assay with PU.1 (IVT); in assay [1]; in assay [2]) were 4.47 z-score, 4.55 z-score and 1.35 z-score, respectively.
For TGAAAGGGGAAGTCTTTTTA, in that order: 6.55 z-score, 6.82 z-score and 2.95 z-score.
The corresponding values for CAGAAAAGGAACTGTGCCAC are 1.62 z-score, 1.5 z-score and 0.517 z-score.
Consider GAAAACAGGAAGTCCCATGG, for which the binding signal amounted to 7.18 z-score in the assay with PU.1 (IVT), 7.08 z-score in assay [1] and 4.74 z-score in assay [2].
For AAAAACAGGAAGTGGAGATG, the results for the binding signal (with PU.1 (IVT); in assay [1]; in assay [2]) were 7.69 z-score, 7.45 z-score and 5.3 z-score, respectively.
For GAAAAGAGGAAGTCATACTA, in that order: 8.06 z-score, 7.39 z-score and 4.04 z-score.
For AGAAGGGGGAAGTGCTACAC, in that order: 4.97 z-score, 5.36 z-score and 2.11 z-score.
For TGAGAGAGGAAGTCACTGGG, in that order: 3.88 z-score, 4.21 z-score and 2.58 z-score.
With ATAAAAAGGAAGTGAGATTT, the binding signal with PU.1 (IVT) came out at 5.24 z-score; in assay [1], 4.64 z-score; in assay [2] it was 2.9 z-score.
For CAAAAAGGGAAGTGGATGCG, in that order: 6.83 z-score, 6.71 z-score and 2.72 z-score.
In the case of AGAGAGAGGAAGTGCCAGAC, the figures for the binding signal (in the assay with PU.1 (IVT); in assay [1]; in assay [2]) were 4.05 z-score, 4.36 z-score and 2.61 z-score, respectively.
For CTGGAGAGGAAGTGGCAGCT, in that order: 3.81 z-score, 3.81 z-score and 2.69 z-score.
Regarding GATAAGAGGAACTACTGTGT, the binding signal amounted to 5.02 z-score with PU.1 (IVT), 5.37 z-score in assay [1] and 1.42 z-score in assay [2].
TTAAAGAGGAAGTGCAACCA: the binding signal with PU.1 (IVT) came to 7.02 z-score; in assay [1], 7.02 z-score; in assay [2] it was 3.55 z-score.
As for TGTAACAGGAAGTGGAATAA, the binding signal amounted to 4.8 z-score in the assay with PU.1 (IVT), 5.32 z-score in assay [1] and 5.09 z-score in assay [2].
Consider AGATACAGGAAGTGAAAAAG, for which the binding signal is 5.04 z-score with PU.1 (IVT), 5 z-score in assay [1] and 4.53 z-score in assay [2].
In the case of GAAAAGAGGAAGTCAGATTA, the values for the binding signal (in the assay with PU.1 (IVT); in assay [1]; in assay [2]) were 8.07 z-score, 7.35 z-score and 4.05 z-score, respectively.
For GAAATGGGGAAGTGCCAACT, in that order: 6.81 z-score, 7.04 z-score and 3.19 z-score.
For AAAAAGAGGAAGGGGAAGAA, in that order: 6.26 z-score, 6.18 z-score and 2.55 z-score.
The corresponding values for AGAAAGAGGAAGTTCCCGTC are 8.56 z-score, 7.43 z-score and 4.3 z-score.
As to CGAAAGGGGAATTGCTAAAC, the values for the binding signal (with PU.1 (IVT); in assay [1]; in assay [2]) were 1.84 z-score, 1.54 z-score and 0.073 z-score, respectively.
For AAAAAGAGGAAGTCAAATTG, in that order: 8.3 z-score, 7.46 z-score and 4.01 z-score.
For TTTTTGAGGAAGTGCAGACT, in that order: 6.05 z-score, 6.42 z-score and 2.57 z-score.
The corresponding values for CAAATGGGGAAATGAGCCAC are 3.47 z-score, 3.45 z-score and 1.34 z-score.
